The other results are listed elsewhere or left out.
Legend:
Assay in all cases: glycan array binding signal (z-score within array); higher = stronger binding
Settings in all cases: glycan notation: IUPAC condensed, linker removed
[1] = molecular target: Glc(a1-6)Glc(a1-6)Glc
Summary of the method: (§1)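 Glycan array binding is given as a within-array Z-score, which can be read as non-binding when negative. The arrays, 3228 of them, came from the Consortium for Functional Glycomics database and were retained only where the protein sequence was available. Z-scores were averaged across arrays of the same protein sequence at different concentrations or buffers and across linkers.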

[2] = molecular target: Glc(b1-4)Glc
Summary of the method: as §1

[3] = molecular target: Glc(b1-6)Glc
Summary of the method: as §1

[4] = molecular target: GlcA(b1-3)Gal
Summary of the method: as §1

[5] = molecular target: GlcA(b1-6)Gal
Summary of the method: as §1

[6] = molecular target: GlcNAc(a1-3)Gal(b1-4)GlcNAc
Summary of the method: as §1

[7] = molecular target: GlcNAc(a1-6)Gal(b1-4)GlcNAc
Summary of the method: as §1

[8] = molecular target: GlcNAc(b1-2)Gal(b1-3)GlcNAc
Summary of the method: as §1

[9] = molecular target: GlcNAc(b1-2)Man(a1-3)[GlcNAc(b1-2)Man(a1-6)]Man(b1-4)GlcNAc(b1-4)GlcNAc
Summary of the method: as §1

[10] = molecular target: GlcNAc(b1-3)Gal
Summary of the method: as §1

[11] = molecular target: GlcNAc(b1-3)Gal(b1-3)GalNAc
Summary of the method: as §1

[12] = molecular target: GlcNAc(b1-3)Gal(b1-4)Glc
Summary of the method: as §1

[13] = molecular target: GlcNAc(b1-3)Gal(b1-4)GlcNAc
Summary of the method: as §1

[14] = molecular target: GlcNAc(b1-3)Gal(b1-4)GlcNAc(b1-3)Gal(b1-4)GlcNAc
Summary of the method: as §1

[15] = molecular target: GlcNAc(b1-3)GalNAc
Summary of the method: as §1

[16] = molecular target: GlcNAc(b1-3)[GlcNAc(b1-4)][GlcNAc(b1-6)]GlcNAc
Summary of the method: as §1

[17] = molecular target: GlcNAc(b1-3)[GlcNAc(b1-6)]Gal(b1-4)GlcNAc
Summary of the method: as §1

[18] = molecular target: GlcNAc(b1-3)[GlcNAc(b1-6)]GlcNAc
Summary of the method: as §1

[19] = molecular target: GlcNAc(b1-4)Gal(b1-4)GlcNAc
Summary of the method: as §1

[20] = molecular target: GlcNAc(b1-4)GlcNAc(b1-4)GlcNAc
Summary of the method: as §1

[21] = molecular target: GlcNAc(b1-4)GlcNAc(b1-4)GlcNAc(b1-4)GlcNAc(b1-4)GlcNAc
Summary of the method: as §1

[22] = molecular target: GlcNAc(b1-4)GlcNAc(b1-4)GlcNAc(b1-4)GlcNAc(b1-4)GlcNAc(b1-4)GlcNAc
Summary of the method: as §1

[23] = molecular target: GlcNAc(b1-4)[GlcNAc(b1-6)]GalNAc
Summary of the method: as §1

[24] = molecular target: GlcNAc(b1-6)Gal(b1-4)GlcNAc
Summary of the method: as §1

[25] = molecular target: GlcNAc(b1-6)GalNAc
Summary of the method: as §1

[26] = molecular target: Kdn(a2-3)Gal(b1-3)GlcNAc
Summary of the method: as §1

[27] = molecular target: Kdn(a2-3)Gal(b1-4)GlcNAc
Summary of the method: as §1

[28] = molecular target: Man(a1-2)Man(a1-2)Man(a1-3)Man
Summary of the method: as §1

[29] = molecular target: Man(a1-2)Man(a1-2)Man(a1-3)[Man(a1-2)Man(a1-3)[Man(a1-2)Man(a1-6)]Man(a1-6)]Man(b1-4)GlcNAc(b1-4)GlcNAc
Summary of the method: as §1

[30] = molecular target: Man(a1-2)Man(a1-2)Man(a1-3)[Man(a1-2)Man(a1-6)[Man(a1-3)]Man(a1-6)]Man(b1-4)GlcNAc(b1-4)GlcNAc
Summary of the method: as §1

[31] = molecular target: Man(a1-2)Man(a1-2)Man(a1-6)[Man(a1-3)]Man
Summary of the method: as §1

[32] = molecular target: Man(a1-2)Man(a1-3)Man
Summary of the method: as §1

[33] = molecular target: Man(a1-2)Man(a1-3)[Man(a1-2)Man(a1-6)]Man
Summary of the method: as §1

[34] = molecular target: Man(a1-2)Man(a1-3)[Man(a1-3)[Man(a1-6)]Man(a1-6)]Man(b1-4)GlcNAc(b1-4)GlcNAc
Summary of the method: as §1

[35] = molecular target: Man(a1-2)Man(a1-3)[Man(a1-6)]Man(a1-6)[Man(a1-2)Man(a1-3)]Man(b1-4)GlcNAc(b1-4)GlcNAc
Summary of the method: as §1

[36] = molecular target: Man(a1-3)[Man(a1-6)]Man
Summary of the method: as §1

[37] = molecular target: Man(a1-3)[Man(a1-6)]Man(a1-6)[Man(a1-3)]Man(b1-4)GlcNAc(b1-4)GlcNAc
Summary of the method: as §1

[38] = molecular target: Man(a1-3)[Man(a1-6)]Man(b1-4)GlcNAc(b1-4)GlcNAc
Summary of the method: as §1

B1: FBG4 (Homo sapiens), Q96EF6 (protein)
chain: MGARLSRRRLPADPSLALDALPPELLVQVLSHVPPRSLVTRCRPVCRAWRDIVDGPTVWLLQLARDRSAEGRALYAVAQRCLPSNEDKEEFPLCALARYCLRAPFGRNLIFNSCGEQGFRGWEVEHGGNGWAIEKNLTPVPGAPSQTCFVTSFEWCSKRQLVDLVMEGVWQELLDSAQIEICVADWWGARENCGCVYQLRVRLLDVYEKEVVKFSASPDPVLQWTERGCRQVSHVFTNFGKGIRYVSFEQYGRDVSSWVGHYGALVTHSSVRVRIRLS
[1]
  glycan array binding signal (z-score): 0.044
[2]
  glycan array binding signal (z-score): 0.332
[3]
  glycan array binding signal (z-score): 0.064
[4]
  glycan array binding signal (z-score): 0.88
[5]
  glycan array binding signal (z-score): 0.226
[6]
  glycan array binding signal (z-score): -0.553
[7]
  glycan array binding signal (z-score): -0.578
[8]
  glycan array binding signal (z-score): -0.431
[9]
  glycan array binding signal (z-score): 0.225
[10]
  glycan array binding signal (z-score): -0.567
[11]
  glycan array binding signal (z-score): -0.546
[12]
  glycan array binding signal (z-score): -0.455
[13]
  glycan array binding signal (z-score): 0.624
[14]
  glycan array binding signal (z-score): -0.193
[15]
  glycan array binding signal (z-score): -0.654
[16]
  glycan array binding signal (z-score): -0.093
[17]
  glycan array binding signal (z-score): -0.482
[18]
  glycan array binding signal (z-score): -0.379
[19]
  glycan array binding signal (z-score): -0.492
[20]
  glycan array binding signal (z-score): -0.2
[21]
  glycan array binding signal (z-score): 0.642
[22]
  glycan array binding signal (z-score): 1.31
[23]
  glycan array binding signal (z-score): -0.527
[24]
  glycan array binding signal (z-score): -0.538
[25]
  glycan array binding signal (z-score): -0.62
[26]
  glycan array binding signal (z-score): -0.481
[27]
  glycan array binding signal (z-score): -0.448
[28]
  glycan array binding signal (z-score): -0.488
[29]
  glycan array binding signal (z-score): 0.115
[30]
  glycan array binding signal (z-score): 0.035
[31]
  glycan array binding signal (z-score): -0.346
[32]
  glycan array binding signal (z-score): -0.412
[33]
  glycan array binding signal (z-score): -0.321
[34]
  glycan array binding signal (z-score): -0.18
[35]
  glycan array binding signal (z-score): 0.121
[36]
  glycan array binding signal (z-score): -0.577
[37]
  glycan array binding signal (z-score): 0.208
[38]
  glycan array binding signal (z-score): 0.275

From the supplement of paper PMC8728848
